Lines with a small IC50 respond at low doses; where the fit passes the top or lowest dose, that dose stands as a limit. AUC sums up the same curve from the lowest dose to the 256-fold higher top dose; values near 1 show little effect. The top dose, if marked as inferred, was derived from the fitted curves, not read from the paper.
Key:
Assay in all cases: Viability of human cancer cell lines after 72 h of drug (GDSC screen)
[1] = compound: COc1ccccc1S(=O)(=O)Nc1ccc2c(c1)CN(C)C(=O)N2 [PFI-1]; details: top dose 10 µM; top dose inferred
Procedure: (§1)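 Human cancer cell lines in 384-well plates, medium with 10% serum, drug for 72 h over a 256-fold dose range (nine 2-fold or five 4-fold steps up to the top dose). Adherent lines were fixed and stained with the nucleic acid dye Syto60, suspension lines read with resazurin; signal relative to control wells, capped at 0 and 100%. One two-parameter sigmoid per drug and line, fitted in a mixed model over all curves with the slope shared within a line.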

[2] = compound: CCc1cc(Nc2nccc(-c3c(-c4ccc(OC)c(C(=O)Nc5c(F)cccc5F)c4)nc4ccccn34)n2)c(OC)cc1N1CCC(N2CCN(S(C)(=O)=O)CC2)CC1 [GSK-1904529A]; details: top dose 1.024 µM; top dose inferred
Procedure: as §1

[3] = compound: Cn1cncc1[C@@](N)(c1ccc(Cl)cc1)c1ccc2c(c1)c(-c1cccc(Cl)c1)cc(=O)n2C [Tipifarnib]; details: top dose 16 µM; top dose inferred
Procedure: as §1

[4] = compound: CCN1CCN(Cc2ccc(NC(=O)c3ccc(C)c(Oc4ccnc5[nH]ccc45)c3)cc2C(F)(F)F)CC1 [NG-25]; details: top dose 10.24 µM; top dose inferred
Procedure: as §1

Cell Line | AUC [1] | IC50 [1] | AUC [2] | IC50 [2] | AUC [3] | IC50 [3] | AUC [4] | IC50 [4]
SF295 (glioma, adherent) | 0.806 | 5.56 µM | 0.977 | > 1.02 µM | 0.481 | 0.882 µM | 0.934 | > 10.2 µM
HSC-3 (head and neck, adherent) | 0.732 | 2.55 µM | 0.914 | > 1.02 µM | 0.674 | 2.82 µM | 0.909 | > 10.2 µM
SNU-398 (liver, adherent) | 0.912 | > 10 µM | 0.903 | > 1.02 µM | 0.122 | < 0.0625 µM | 0.869 | 10 µM
SW1271 (small cell lung carcinoma, adherent) | 0.91 | > 10 µM | 0.961 | > 1.02 µM | 0.499 | 0.992 µM | 0.764 | 4.27 µM
H3255 (lung adenocarcinoma, adherent) | 0.914 | > 10 µM | 0.979 | > 1.02 µM | 0.718 | 4.73 µM | 0.977 | > 10.2 µM
WM278 (melanoma, adherent) | 0.911 | > 10 µM | 0.979 | > 1.02 µM | 0.443 | 0.683 µM | 0.771 | 4.43 µM
RPMI-2650 (head and neck, adherent) | 0.836 | 7.4 µM | 0.98 | > 1.02 µM | 0.706 | 4.01 µM | 0.834 | 7.46 µM
RERF-LC-Sq1 (lung squamous cell carcinoma, adherent) | 0.904 | > 10 µM | 0.976 | > 1.02 µM | 0.897 | > 16 µM | 0.936 | > 10.2 µM
KYSE-50 (oesophagus, adherent) | 0.942 | > 10 µM | 0.982 | > 1.02 µM | 0.581 | 1.63 µM | 0.871 | 8.27 µM
KP-4 (pancreas, adherent) | 0.942 | > 10 µM | 0.979 | > 1.02 µM | 0.825 | 9.09 µM | 0.986 | > 10.2 µM
NCI-H2172 (non-small cell lung carcinoma, adherent) | 0.963 | > 10 µM | 0.941 | > 1.02 µM | 0.78 | 9.15 µM | 0.859 | > 10.2 µM
LN-18 (glioma, adherent) | 0.935 | > 10 µM | 0.988 | > 1.02 µM | 0.834 | 7.73 µM | 0.955 | > 10.2 µM
HCC38 (breast, adherent) | 0.908 | > 10 µM | 0.977 | > 1.02 µM | 0.76 | – | 0.857 | 9.41 µM
U-118-MG (glioma, adherent) | 0.919 | > 10 µM | 0.97 | > 1.02 µM | 0.781 | 7.73 µM | 0.958 | > 10.2 µM
T47D (breast, adherent) | 0.888 | > 10 µM | 0.967 | > 1.02 µM | 0.79 | 11.9 µM | 0.827 | > 10.2 µM
EGI-1 (biliary tract, adherent) | 0.88 | > 10 µM | 0.967 | > 1.02 µM | 0.67 | 3.45 µM | 0.937 | > 10.2 µM
LU-135 (small cell lung carcinoma, suspension) | 0.967 | > 10 µM | 0.98 | > 1.02 µM | 0.697 | 3.19 µM | 0.828 | 4.91 µM
NCI-H1993 (lung adenocarcinoma, adherent) | 0.878 | > 10 µM | 0.976 | > 1.02 µM | 0.85 | > 16 µM | 0.964 | > 10.2 µM
KYSE-510 (oesophagus, adherent) | 0.947 | > 10 µM | 0.951 | > 1.02 µM | 0.523 | 1.14 µM | 0.974 | > 10.2 µM
SW1463 (large intestine, adherent) | 0.895 | > 10 µM | 0.974 | > 1.02 µM | 0.773 | 11.7 µM | 0.978 | > 10.2 µM
HCC-44 (lung adenocarcinoma, adherent) | 0.761 | 3.48 µM | 0.961 | > 1.02 µM | 0.493 | 0.957 µM | 0.836 | 6.58 µM
HCC1954 (breast, adherent) | 0.981 | > 10 µM | 0.982 | > 1.02 µM | 0.737 | 5.4 µM | 0.984 | > 10.2 µM
NCI-H2444 (non-small cell lung carcinoma, adherent) | 0.937 | > 10 µM | 0.988 | > 1.02 µM | 0.93 | > 16 µM | 0.987 | > 10.2 µM
MFE-280 (endometrium, adherent) | 0.961 | > 10 µM | 0.981 | > 1.02 µM | 0.923 | > 16 µM | 0.646 | 1.82 µM
BICR22 (head and neck, adherent) | 0.879 | > 10 µM | 0.972 | > 1.02 µM | 0.813 | 10.3 µM | 0.953 | > 10.2 µM
HO-1-N-1 (head and neck, adherent) | 0.824 | 5.33 µM | 0.98 | > 1.02 µM | 0.783 | 6.15 µM | 0.973 | > 10.2 µM

From the supplement of paper PMC4967469
